Assay results reported in PubChem BioAssay AID686970 (National Center for Advancing Translational Sciences (NCATS), 2013).
Hit rate of the full screen: of about 360,000 compounds, about 6,000 (1.7%) were called active. This list was built around the results that the source calls inconclusive (neither active nor inactive); the mix of calls is not that of the screen. Calls follow the shape of the dose curve; as a rule, active = well fitted cell-killing curve with a large enough effect; inconclusive = small, poorly fitted or top-dose-only effect, or effect the other way; inactive = flat fitted curve, though single readings scatter. Potencies of inconclusive entries are left out as doubtful fits.

assay: qHTS for induction of synthetic lethality in tumor cells producing 2HG: qHTS for the HT-1080-NT fibrosarcoma cell line; settings: HT-1080-NT fibrosarcoma viability, CellTiter-Glo ATP luminescence, 48 h; series mostly up to 46.1 µM; also: nearly all actives have a fitted effect of over 55% in size
Source text: Unbiased genomic sequencing for 22 glioma genomes found recurrent mutation of IDH1 on chromosome 2q33, a gene encoding the cytosolic isoform of IDH1 associated with the tricarboxylic acid cycle (TCA) that catalyzes the oxidative decarboxylation of isocitrate, yielding alpha-ketoglutarate and CO2 via NADP+ to NADPH conversion. Subsequent studies confirmed the recurrent IDH mutations in up to 70% of secondary gliomas and in 10% of AML cases. In addition, the somatic mutation of cancer-associated IDH1 is a point mutation resulting in various amino-acid substituents at Arginine132 (IDH1 R132), a key residue found in the enzyme's active site that when mutated, results in the loss-of-function in metabolizing isocitrate but confers a gain-of-function to produce the oncometabolite 2-hydroxyglutarate (2HG). This in effect defines IDH1 as an oncogene and provides an extraordinary opportunity to discover chemical probes against mutant IDH1 that may translate into much needed new therapies for glioma and AML patients.
This assay aims to perform a synthetic lethal screen for chemical probes specific for 2HG-producing tumor cells using matched paired cell lines (1) HT-1080-NT fibrosarcoma cell line that overproduces 2HG and (2) HT-1080-IDH1KD cell line which has IDH1 expression knocked-down. Desirable compounds are toxic to the NT fibrosarcoma cells but not to the IDH1KD cell line. The data in this AID corresponds to the results of the qHTS against the HT-1080-NT fibrosarcoma cell line.
[1] Dang L, Jin S, Su SM. IDH mutations in glioma and acute myeloid leukemia. Trends of Mol Med. 2010; 16(9): 387-97.
[2] Dang L et al. Cancer-associated IDH1 mutations produce 2-hydroxyglutarate. Nature. 2010; 465(7300):966.
NIH Molecular Libraries Probe Production Centers Network [MLPCN]
NIH Chemical Genomics Center [NCGC]
Assay Submitter (PI): Lenny Dang Ph.D., Agios Pharmaceuticals
Suspensions of trypsinized HT-1080-NT cells were dispensed into white, tissue culture-treated, solid 1536-well plates at 5uL/well (750 cells/well final concentration) in RPMI medium supplemented with 5% FBS. Plates were incubated at 37 degrees C for 2 hours, after which 23 nL of compounds or DMSO were delivered to each well using a pin tool. Plates were then incubated at 37 degrees C for an additional 48 hours. CellTiter-Glo viability reagent (Promega) was dispensed into wells (2.5uL/well) and incubated at room temperature for 10 minutes. The plates were measured on a PerkinElmer ViewLux plate reader for luminescent signal (clear filter, 1 sec exp). DMSO-treated control wells and media-only (no cells) control wells were used to normalize %Activity of identified toxic compounds; DMSO-treated wells corresponded to 0%Activity (100% viability), while media-only controls were used to normalize 100%Activity (0% viability).
Concentration-response curves were fitted to the signals arising from the resulting luminescence. The concentration-effect curves were then classified based on curve quality (r2), response magnitude and degree of measured activity, and compounds were subsequently categorized based on their curve class.
Potency is read from the fitted curve at half-maximal effect; tags tell the direction and shape of the fitted curve.

| Compound | Potency |
| --- | --- |
| Cc1cc(C(=O)OCC(=O)NCc2ccco2)c(C)n1-c1ccc(F)cc1 | inconclusive [cytotoxic, full curve] |
| CCOC(=O)C1=C(COC(=O)c2ncc(Cl)c(Cl)c2Cl)NC(=O)NC1C (stereo unspecified) | inactive |
| C/C(=N\NC(=S)Nc1ccc(F)cc1)c1ccc2c(c1)OCCO2 | inconclusive [cytotoxic, single point] |
| COc1ccc(Cl)cc1NC(=O)CN(C)C(=O)c1cc2c(F)cccc2s1 | inconclusive [cytotoxic, single point] |
| Cn1c(CC(=O)NNC(=O)c2ccccc2[N+](=O)[O-])nc2ccccc21 | inactive |
| O=C(Nc1ccccc1)C(=O)c1c[nH]c2ccccc12 | inactive |
| COc1ccc(CCNCc2ccc(OCc3ccccc3)cc2)cc1 | inconclusive [cytotoxic, single point] |
| Cc1ccc(S(=O)(=O)Nc2ccc(Nc3ccccc3)cc2)cc1 | inconclusive [cytotoxic, partial curve, poor fit] |
| CCOc1ccc2nc(NC(=O)c3ccco3)sc2c1 | active: 20.6 µM |
| COc1ccc(/C=C2\SC(=O)NC2=S)cc1OC | inconclusive [cytotoxic, partial curve] |
| NC(=S)NC(c1ccccc1)c1ccncc1 (stereo unspecified) | inconclusive [cytotoxic, single point] |
| S=C(Nc1ccccc1)Nc1nc2ccccc2n1CCOc1ccccc1 | inconclusive [cytotoxic, single point] |
| COc1ccccc1NC(=O)C1CCCN(S(=O)(=O)c2ccc(-n3cnnn3)cc2)C1 (stereo unspecified) | inactive |
| CC(C)(C)c1csc(NNC(=O)c2ccc(Cl)cc2)n1 | inactive |
| O=C(c1cnccn1)N1CCc2c([nH]c3ccccc23)C1c1cccc(Cl)c1 (stereo unspecified) | inactive |
| Cc1cc(C)c(C)c(S(=O)(=O)Nc2ccccc2C(=O)NCCCn2ccnc2)c1C | inconclusive [cytotoxic, partial curve] |
| O=C(CC[C@H]1O[C@@H](n2cnc3c(NC(=O)c4ccccc4)ncnc32)[C@H](O)[C@@H]1O)NCc1ccco1 | inconclusive [rising, single point] |
| COc1ccccc1C1(CCNC(C)c2cccs2)CCOC(C(C)C)C1 (stereo unspecified) | inconclusive [cytotoxic, single point] |

| Compound | Potency |
| --- | --- |
| O=C(Nc1ccc(-c2cn3ccccc3n2)cc1)c1ccco1 | inconclusive [cytotoxic, single point] |
| O=C(COc1nsnc1N1CCOCC1)N/N=C/c1ccccc1O | inconclusive [cytotoxic, single point] |
| Cc1ccsc1C1NC(=O)c2c(sc3c2CCCC3)N1 (stereo unspecified) | inactive |
| O=C(NN1C(=O)c2cc(Br)ccc2NC1c1cc(Br)cc(Br)c1O)c1ccncc1 (stereo unspecified) | inactive |
| CC(C)c1ccc(CNc2ccc([N+](=O)[O-])cn2)cc1 | inconclusive [cytotoxic, partial curve, poor fit] |
| COc1ccc(N2CC(C(=O)Nc3ccccc3N3CCCC3)CC2=O)c(OC)c1 (stereo unspecified) | inconclusive [cytotoxic, single point] |
| Cc1nc(N)nc(N)c1Oc1ccc(Cl)cc1 | inconclusive [cytotoxic, single point] |
| Cc1cccc(-c2nc(=S)c3c(n2Cc2ccco2)CCCC3)c1 | inactive |
| Cc1cccc2sc(NC(=O)CNS(=O)(=O)c3ccc(Br)s3)nc12 | inconclusive [cytotoxic, single point] |
| CCOc1ccc2c(ccc(/C=C/c3cc(C)c4cccnc4c3O)[n+]2C)c1 | inconclusive [cytotoxic, single point] |
| CNc1ccc(/C=C2\COc3ccccc3C2=O)cc1[N+](=O)[O-] | inactive |
| CCc1cc(CNC(=O)c2cccc(OC3CCN(S(C)(=O)=O)CC3)c2)on1 | active: 16.4 µM |
| Cc1ccnc(Sc2ccc([N+](=O)[O-])cc2[N+](=O)[O-])n1 | inconclusive [cytotoxic, single point] |
| Cc1[nH]n(-c2ccccc2)c(=O)c1N=Nc1c(O)cc(S(=O)(=O)N(C)C)c2ccccc12 | inconclusive [cytotoxic, partial curve] |
| Cc1ccc(NN2C(=O)C=C(c3ccc(Cl)cc3)C2=O)cc1 | inconclusive [cytotoxic, single point] |
| COC(=O)[C@]12CCCCC=C1N(CCc1ccc(OC)c(OC)c1)C(=O)[C@H](CC(=O)NCCCCc1ccccc1)C2 | inconclusive [cytotoxic, single point] |
| C/C(=N\NC(=O)CCc1ccccc1)c1ccc(Br)cc1 | inconclusive [cytotoxic, single point] |
| O=C1OCC(CO)(CO)N=C1NNc1ccccc1Cl | active: 10 µM |
